ChEMBL document CHEMBL1201862, “PubChem BioAssay data set” (2004)

Tested on: NCI-H322M
Assay: growth of human tumour cells (NCI), 48 h

Compound	GI50
CC1[C@@]2(CCC(C)(C)O2)O[C@@H]2C=C3C4CCC5Cc6nc7c(nc6C[C@@]5(C)C4C[C@H](O)[C@@]3(C)[C@]12O)CC1CCC2C3=C[C@H]4O[C@@]5(O[C@@](C)(CO)C[C@@H]5O)C(C)[C@@]4(O)[C@]3(C)[C@@H](O)CC2[C@]1(C)C7 (some centres undefined)	active: 0.881 µM
C=CCn1c(-c2ccc(Cl)cc2)cs/c1=N\c1ccccc1OC	inactive: > 100 µM
O=C(CCc1cccc(O)c1)NCCc1cccc(OCc2ccccc2)c1	inactive: 23.1 µM
CCOC(=O)C(Cc1ccc2c(c1)CCC2)(Cc1ccc2c(c1)CCC2)C(=O)OCC	inactive: > 100 µM
O=[N+]([O-])/C(C(Cl)=C(Cl)Cl)=C1\NCCO1	inactive: > 100 µM
C=C1CC(Cn2cc(Br)c(=O)[nH]c2=O)(c2ccc(Br)cc2)OC1=O (centres undefined)	inactive: 14.8 µM
CC(C)OP(=S)(NC(=S)c1ccccc1)OC(C)C	inactive: > 100 µM
COc1ccc(/C=C2\N/C(=N/N)N=C2Cl)cc1	inactive: > 100 µM
CCOC(=O)C(C)(c1cn(C)c2ccccc12)c1cn(C)c2ccccc12	inactive: > 100 µM
O=C(CSc1nnc(Cc2ccccc2)o1)Nc1cccc(Cl)c1	inactive: > 100 µM
COc1ccc(/N=N/c2ccc3oc(=O)c(C(=O)Nc4ccc(Cl)cc4)cc3c2)cc1	inactive: 9.35 µM
O=C1c2cscc2C(=O)c2c(OCc3ccccc3)ccc(OCc3ccccc3)c21	inactive: > 100 µM
COc1cc(C2C3=C(COC3=O)OC(C)(C)Oc3cc4c(cc32)OCO4)cc(OC)c1O (centres undefined)	inactive: 2.49 µM
CC(C)(C)c1cc(C(CO)OCCOCCO)cc(C(C)(C)C)c1O (centres undefined)	inactive: > 100 µM
CN1C2CCC1C(C(O)c1ccccc1[N+](=O)[O-])C(=O)C2 (centres undefined)	inactive: 44.6 µM
Nc1nc(N)c2nc(CNc3ccc(C(=O)O)cc3)[nH]c2n1	inactive: > 100 µM
CC(=O)Nc1ccc(S(=O)(=O)c2nnc(NC(C)=O)s2)cc1	inactive: > 100 µM
Cc1ccnc(NS(=O)(=O)c2ccc(N=[N+]=[N-])cc2)n1	inactive: > 100 µM
COC(=O)/C=C/c1ccc2c(c1)CCC2	inactive: > 100 µM
O=C1C=C(Nc2ccccc2C(=O)c2ccccc2)c2ccccc2C1=O	inactive: 57.3 µM
CSc1nc2nc(C)c(C)nc2c(=O)[nH]1	inactive: 51.3 µM

Compound	GI50
NCCCN1CCN(CCCNc2ccc3nnn4c5ccccc5c(=O)c2c34)CC1	inactive: 17.5 µM
O=C(CCN(CCO)CCO)Nc1ccc2c(c1)C(=O)c1ccc(NC(=O)CCN(CCO)CCO)cc1C2=O	inactive: 29.9 µM
Cc1cc(NC(=O)C(=O)Cc2cnc3ccccc3n2)c(S(=O)(=O)O)cc1Cl	inactive: > 100 µM
N#CC(NC12CC3CC(CC(C3)C1)C2)c1ccccc1 (centres undefined)	inactive: > 100 µM
COc1cc2c(cc1O)CCN[C@@]21CS[C@H]2c3c(OC(C)=O)c(C)c4c(c3C(COC1=O)N1C2C2c3c(cc(C)c(OC)c3O)CC([C@@H]1O)N2C)OCO4 (some centres undefined)	active: 0.0146 µM
CC(C)COC(=O)N1N=NC2C3OC(CC3=O)C21 (centres undefined)	inactive: > 100 µM
COC1C=COC2(C)Oc3c(C)c(O)c4c(O)c(c(C5SCCS5)c(O)c4c3C2=O)NC(=O)/C(C)=C\C=CC(C)C(O)C(C)C(O)C(C)C(OC(C)=O)C1C (centres undefined)	inactive: 17.9 µM
CC[C@H]1C=CCC[C@@]2(C[C@@H]3CC[C@@H]4[C@H](C(=O)OCCCCCCCCCCCCCCCC(=O)N(CCCN)CCCCN)[C@]5(CCC[C@@H](C)O5)NC(=[N+]34)N2)O1	active: 0.2 µM
O=C1CC=C2C3CC4N(CCC45c4ccccc4N1C25)C/C3=C\CO (centres undefined)	inactive: > 100 µM
Cc1cc(=O)oc2c3c(ccc12)OC(c1ccc(Br)cc1)CC3=O (centres undefined)	inactive: 17.1 µM
COc1ccc(C2c3cc4c(cc3OC3(OC)COC(=O)C23)OCO4)c(OC)c1 (centres undefined)	inactive: 31.8 µM
C=CCOc1ccc2c(C)cc(=O)oc2c1C	inactive: > 100 µM
Cc1c(N)nc(C2CC(=O)N2CC(N)C(N)=O)nc1C(=O)NC(C(=O)NC(C)C(O)C(C)C(=O)NC(C(=O)NCCc1nc(-c2nc(C(=O)NCCNCC(C)O)cs2)cs1)C(C)O)C(OC1OC(CO)C(O)C(O)C1OC1OC(CO)C(O)C(OC(N)=O)C1O)c1c[nH]cn1 (centres undefined)	inactive: 66.7 µM
O=C(NC(=O)c1cc(-c2ccccc2)n[nH]1)c1ccccc1	inactive: > 100 µM
CN(C)c1ccc(/C=c2\sc3nc4ccccc4n3c2=O)cc1	inactive: > 100 µM
O=C1Oc2cc3c(c4cccc1c24)OCN(c1ccccc1)C3	inactive: > 100 µM
COc1cccc2c1C(=O)c1c(O)c3c(c(O)c1C2=O)C[C@@](O)(C(C)O)C[C@@H]3OC1CC(N)C(O)C(C)O1 (some centres undefined)	inactive: 4.81 µM
COc1ccc(C(OCC2OC(n3cc(C)c(=O)[nH]c3=O)CC2n2cc(Cn3cc(Cl)c(=O)[nH]c3=O)nn2)(c2ccccc2)c2ccccc2)cc1 (centres undefined)	inactive: > 100 µM
CC(=O)C(=C(I)I)c1ccccc1	inactive: 18.3 µM
C1=N\CCOCC/N=C\c2ccc(cc2)OCc2cccc(n2)COc2ccc/1cc2	inactive: > 100 µM
O=C(O)C1C(C(=O)Nc2ccc3c(c2)Cc2ccccc2-3)C2(Cl)C(Cl)=C(Cl)C1(Cl)C2(Cl)Cl (centres undefined)	inactive: 33.2 µM

Compound	GI50
CCN(CC)CCC1(C2CCCCC2)CCC(=O)NC1=O (centres undefined)	inactive: > 100 µM
CC1CC2C3CCC4=CC(=O)C=CC4(C)C3(F)C(O)CC2(C)C1(O)C(=O)COP(=O)(O)O (centres undefined)	inactive: > 100 µM
CC(NC(=O)CCS)C(=O)NC(C)C(=O)NC(Cc1c[nH]c2ccccc12)C(=O)NC(Cc1c[nH]cn1)C(=O)NC(CO)C(=O)NC(Cc1c[nH]c2ccccc12)C(=O)NCCCCC(=O)NC(C)C(=O)NC(CCC(N)=O)C(=O)NC(CCCCN)C(=O)NC(C)C(=O)NC(CCCNC(=N)N)C(=O)NC(CCCCN)C(N)=O (centres undefined) ([Mpa]AAWHSW[Ava]AQKARK-NH2; configuration not given here)	inactive: > 100 µM
COc1ccc(Cl)cc1NC(=O)O/N=C(\Cl)C(C)C	inactive: 18.4 µM
C1OCN2c3nonc3N3COCN4c5nonc5N1C2C43 (centres undefined)	inactive: > 100 µM
COc1cc(C2S/C(=C/c3ccccc3)C(=O)N2c2ccccc2Cl)cc(OC)c1OC (centres undefined)	inactive: 17.3 µM
COc1ccc(/N=C2/C(=N/c3ccc(OC)cc3)N(c3ccccc3)C(=S)N2N=C=C2Sc3ccccc3N2C)cc1	inactive: > 100 µM
C=C(C)CC1=C(OCC)C(OC)(OCC)C1=O (centres undefined)	inactive: > 100 µM
N#CC12C(=O)N3C(=NC(c4ccccc4)NC3c3ccccc3)C1(C#N)C(c1ccccc1)NC1=C2CCCC1 (centres undefined)	inactive: > 100 µM
C[n+]1ccc(Nc2ccc(NC(=O)c3ccc(Nc4cc[n+](C)c5ccc([N+](=O)[O-])cc45)cc3[N+](=O)[O-])cc2)cc1	inactive: > 100 µM
CC(C)c1ccc2nc3ccc(C(=O)NCCN4CCN(c5ccccc5)CC4)cn3c(=O)c2c1	inactive: 84.9 µM
CS/C(=N\C(=S)N(C)C)N(c1ccccc1)c1nc(N(C)C)s[s+]1	inactive: 12.5 µM
Nc1cccc(OCc2nc(N)nc(N)c2-c2ccc(Cl)cc2)c1	inactive: 76.4 µM
O=[PH](O)c1cccnc1	inactive: > 100 µM
COc1ccc2o/c(=N\c3ccc(F)cc3)c(C(N)=O)cc2c1	inactive: 25.4 µM
O=C(c1cccs1)N(C(=O)N1CCC(c2ccccc2)CC1)c1ccccc1	inactive: > 100 µM
O[C@@]1(C#Cc2ccc3c(c2)OCO3)CCC[C@H]1NCc1ccccc1	inactive: 31.4 µM
COc1ccc(/C=N/n2c(Cc3ccccc3)n[nH]c2=O)cc1	inactive: > 100 µM
O=C(OCc1c(-c2ccccc2)nn(-c2ccccc2)c1COC(=O)Oc1ccccc1)Oc1ccccc1	inactive: > 100 µM
COc1ccc(Nc2nc3ccc(C(F)(F)F)cc3nc2C(=O)O)cc1	inactive: 47.9 µM
COc1ccc(/C(Nc2ccccc2)=C(\CCl)c2ccccc2)cc1OC	inactive: > 100 µM

Compound	GI50
O=[N+]([O-])c1cc2c(c([N+](=O)[O-])c1)NCc1ccccc1O2	inactive: > 100 µM
Nc1ccccc1N/C=C\C(=O)C(Cl)(Cl)Cl	inactive: 33.7 µM
O=C(O)CCCc1ccc(N(CCCl)CCCl)cc1 [CHLORAMBUCIL]	inactive: 205 µM
CCOC(=O)CCCn1nnc(C(=O)OCC)c1C(=O)OCC	inactive: > 100 µM
COC(=O)c1s/c(=N\C(=S)N(C)C)n(-c2ccccc2)c1C(=O)OC	inactive: > 100 µM
CN(CCc1ccccn1)C(=S)N/N=C(\c1ccccc1)c1ccccn1	active: < 0.0139 µM
COC(C)(C)[C@@H](O)[C@H]1C[C@H](C)[C@@]2(CC[C@]3(C)[C@@H]2CC[C@@H]2[C@@]4(C)CC[C@@H](OC(C)=O)C(C)(C)[C@@H]4C[C@@H](OC4OC(COC(C)=O)C(O)C(O)C4O)[C@]23C)O1 (some centres undefined)	inactive: 2.01 µM
Brc1cccc(C2(CCCC3(c4cccc(Br)n4)OCCO3)OCCO2)n1	inactive: > 100 µM
Fc1ccc(Nc2nnc(-c3ccccn3)s2)cc1	inactive: > 100 µM
C#CCN(C(=O)C(F)(F)F)C(/C=C\C(=O)OC)(C(=O)OCC)C(=O)OCC	inactive: > 100 µM
CCOC(=O)C1=C(OC(OCC)C(CC)[Se]c2ccccc2)CCCC1 (centres undefined)	inactive: > 100 µM
Clc1ccccc1C(SCc1ccccc1)SCc1ccccc1	inactive: > 100 µM
O=C(Nc1ccccc1C(=O)O)C(=Cc1ccccc1O)NC(=O)c1ccccc1	inactive: > 100 µM
COc1ccc2c(c1)c1c(n2CCN(C)C)-c2ccccc2CC1	inactive: 15.3 µM
CCCCCCOc1ccc(C(=O)NOC)cc1	inactive: > 100 µM
CCOC(=O)CCC(NC(=O)c1ccc(Nc2cnc3cc(C(F)(F)F)ccc3n2)cc1)C(=O)OCC (centres undefined)	inactive: > 100 µM
Cc1ccc(C(=O)NCCN(C)C)c2nc3ccccc3cc12	inactive: 4.38 µM
O=c1c2ccccc2nc(-c2cccc(Cl)c2)n1NC1OC(CO)C(O)C(O)C1O (centres undefined)	inactive: > 100 µM
COc1cc(S(=O)(=O)N/N=C/c2cc(Br)c(O)c(OC)c2)c(OC)cc1NC(C)=O	inactive: > 100 µM
CCOC(=O)Cn1nnc2cc(Nc3c(C)[n+]([O-])c4cc(F)c(OCC)cc4[n+]3[O-])ccc21	inactive: > 100 µM
CCCCCCCCCCCCCCCCCCOCC(O)COP(=O)(O)OCC1OC(n2cc(F)c(=O)[nH]c2=O)CC1O (centres undefined)	active: 0.637 µM

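All cell lines were grown in 96-well plates and treated with compound for 48 hours. GI50 = concentration required for 50% inhibition of growth.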 Activity calls are given as the source filed them. Rule as the data show it: active = GI50 up to about 1.1 µM and inactive = higher. Square brackets hold non-standard residues; d marks the D form. Peptide text beside a SMILES is read from it. Ava = NCCCCC(=O)O; Mpa = O=C(O)CCS
